Test results from the supplement of paper PMC4604168 (melanoma cell lines).
Some of the results follow. Most values come without repeats; read them as rough.

The compounds below were run on SkMel30 (assay: cell count relative to DMSO control; melanoma cells; higher = more viable cells). Details: library dose: low library concentration; 72 h; first compound 0.4 µM.
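Further: cell number obtained by counting DAPI-stained nuclei in high-throughput microscope images with image analysis software, screen run in 1,536-well plates.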

Row | Structure (SMILES) | cell count [%]
1 | CCCCCCCCCCCCCCCCCCOP(=O)([O-])OC1CC[N+](C)(C)CC1 [Perifosine] + O=C(O)c1ccc(-c2c[nH]c3ncc(-c4ccccc4)cc23)cc1C1CCCC1 [GSK650394] (partner dose 0.16 µM) | 107
2 | C[C@@H](N)c1ccc(C(=O)Nc2ccnc3[nH]ccc23)cc1 + CO[C@@H]1[C@H](N(C)C(=O)c2ccccc2)C[C@H]2O[C@]1(C)n1c3ccccc3c3c4c(c5c6ccccc6n2c5c31)C(=O)NC4 [Midostaurin] (partner dose 0.08 µM) | 118
3 | Cn1sc(=O)n(Cc2ccccc2)c1=O + CN(NC(=O)CC(=O)NN(C)C(=S)c1ccccc1)C(=S)c1ccccc1 [STA4783] (partner dose 0.006 µM) | 93.9
4 | Cn1sc(=O)n(Cc2ccccc2)c1=O + Oc1cc(-c2nc(-c3ccccc3)[nH]c2-c2ccncc2)ccc1Cl [L779450] (partner dose 0.2 µM) | 89.9
5 | CCCCCCCCCCCCCCCCCCOP(=O)([O-])OC1CC[N+](C)(C)CC1 [Perifosine] + Cc1cc([N+](=O)[O-])ccc1NS(=O)(=O)c1cc(Cl)ccc1Cl [FH535] (partner dose 1 µM) | 104
6 | C[C@@H](N)c1ccc(C(=O)Nc2ccnc3[nH]ccc23)cc1 + O=C(O)C(=O)Nc1sc2c(c1C(=O)O)CCNC2 [TCS401] (partner dose 1.66667 µM) | 116
7 | C[C@@H](N)c1ccc(C(=O)Nc2ccnc3[nH]ccc23)cc1 + COc1ccc(COc2ccc(Cc3cnc(N)nc3N)cc2OC)cc1 [GW2580] (partner dose 1 µM) | 92.1
